# According to the supplement of paper PMC9135407:
# Values joined by “and” are separate entries in the source; they are usually repeats but may differ in a detail not shown here. Equal values may be shown once. Where a name gives a salt, the structure may show the parent alone. In all, about 5,800 compounds went through this assay and about 620 (11%) showed activity.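 The calls were made as follows: active = score above a cut-off or among the top three wells of a plate; in these data no inactive exceeds 0.85.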 Only a part is listed here, and it is no random draw.
# Tested on: primary human hepatic stellate cells (donor 1)
# Experiment: scaled lipid accumulation score (0 = DMSO-like, 1 = nortriptyline-like); higher = stronger HSC inactivation (lipid re-accumulation), active = hit call of the paper
# Settings: 48 h
# [1] = library stock concentration: 3.33 mM
# [2] = library stock concentration: 10 mM
# [3] = library stock concentration: 1 mM
# [4] = library stock concentration: 80 uM
# [5] = library stock concentration: 400 uM
# [6] = library stock concentration: 2 mM
# [7] = library stock concentration: 4.7 mM
# [8] = library stock concentration: 6 mM
smiles,measurement,setting,value
CC(C)CN(C[C@@H](O)[C@H](Cc1ccccc1)NC(=O)O[C@H]1CCOC1)S(=O)(=O)c1ccc(N)cc1 [Amprenavir],scaled lipid accumulation score,[1],inactive: ≤ 0
same,scaled lipid accumulation score,library stock concentration: 4 mM,inactive: ≤ 0
same,scaled lipid accumulation score,[2],inactive: ≤ 0
CN(C)S(=O)(=O)c1ccc2c(c1)/C(=C/c1cc3c([nH]1)CCCC3)C(=O)N2,scaled lipid accumulation score,[3],active: 0.413
CCn1c(=O)[nH]c2ccccc21,scaled lipid accumulation score,[2],inactive: ≤ -0.006
CCN(CC)CCCCNc1ncc2cc(-c3c(Cl)cccc3Cl)c(NC(=O)NC(C)(C)C)nc2n1,scaled lipid accumulation score,[2],active: 0.999
CCNC(=O)c1noc(-c2cc(Cl)c(O)cc2O)c1-c1ccc(OC)cc1,scaled lipid accumulation score,[1],inactive: 0.783
same,scaled lipid accumulation score,[2],inactive: 0.741
CCCCCCCCCCC(C)(C)C(=O)Nc1c(OC)cc(OC)cc1OC,scaled lipid accumulation score,[2],inactive: 0.164 and inactive: ≤ -0.001
"CN=C(N)NCCC[C@H](N)C(=O)O [L-Ornithine, N5-[imino(methylamino)methyl]-[CAS]]",scaled lipid accumulation score,[2],inactive: ≤ 0
CCOC(=O)c1ccc(N2NC(=O)C(=Cc3ccc([N+](=O)[O-])o3)C2=O)cc1,scaled lipid accumulation score,[4],inactive: ≤ -0.001
same,scaled lipid accumulation score,[5],inactive: ≤ -0.001
same,scaled lipid accumulation score,[6],inactive: ≤ -0.001
same,scaled lipid accumulation score,[1],inactive: ≤ -0.009
same,scaled lipid accumulation score,[2],inactive: 0.131 and inactive: ≤ -0.001
CC[C@]12CCCN3CCc4c(n(c5ccccc45)C(=O)C1)[C@@H]32 [Eburnamonine (-)],scaled lipid accumulation score,,inactive: ≤ 0
CCCCC(=O)Oc1ccccc1C(=O)O [Valeroyl Salicylate],scaled lipid accumulation score,[3],inactive: ≤ 0
C[C@@H](Oc1cc(-c2cnn(C3CCNCC3)c2)cnc1N)c1c(Cl)ccc(F)c1Cl,scaled lipid accumulation score,[1],active: 0.909
same,scaled lipid accumulation score,[2],active: 0.863
CCCCCCCCCCCCCCCCCCCCCC(=O)NCCS(=O)(=O)O [N-Docosanoyl Taurine],scaled lipid accumulation score,[3],inactive: ≤ 0
CCn1cc(C(=O)O)c(=O)c2cc(F)c(N3CCN(C)CC3)cc21,scaled lipid accumulation score,[2],inactive: ≤ 0
CCn1cc(C(=O)O)c(=O)c2cc(F)c(N3CCN(C)CC3)cc21 [Pefloxacin Mesylate Dihydrate],scaled lipid accumulation score,[1],inactive: ≤ 0
same,scaled lipid accumulation score,[2],inactive: ≤ 0
CCn1cc(C(=O)O)c(=O)c2cc(F)c(N3CCN(C)CC3)cc21 [Pefloxacine mesylate],scaled lipid accumulation score,[7],inactive: ≤ 0
same,scaled lipid accumulation score,[8],inactive: 0.013
same,scaled lipid accumulation score,[2],inactive: ≤ -0.027
CCn1cc(C(=O)O)c(=O)c2cc(F)c(N3CCN(C)CC3)cc21 [Pefloxacin Mesylate],scaled lipid accumulation score,[1],inactive: ≤ 0
same,scaled lipid accumulation score,[2],inactive: 0.034
CC(N)(C(=O)O)c1ccc(C(=O)O)cc1 (stereo unspecified),scaled lipid accumulation score,[2],inactive: 0.151
Cc1ccc(S(=O)(=O)NCl)cc1,scaled lipid accumulation score,[2],inactive: ≤ 0
CCCCCCCC(=O)CC[C@@H]1[C@@H](C/C=C\CCCC(=O)OC(C)C)[C@@H](O)C[C@H]1O [Unoprostone isopropyl ester],scaled lipid accumulation score,[3],inactive: ≤ 0
CCOC(=O)c1c(C)[nH]c2ccc3c(c12)CN1CCc2cc(OC)ccc2C1O3 (stereo unspecified),scaled lipid accumulation score,[2],inactive: 0.648
O[C@H]1[C@H](O)[C@@H](O)[C@@H]2O[C@@H]2[C@@H]1O (racemic) [Conduritol b epoxide],scaled lipid accumulation score,library stock concentration: 12.3 mM,inactive: ≤ 0
C[C@@H]1O[C@@H]1P(=O)(O)O [Phosphomycin disodium],scaled lipid accumulation score,[2],inactive: ≤ -0.055
C[C@@H]1O[C@@H]1P(=O)(O)O [Fosfomycin],scaled lipid accumulation score,[2],inactive: ≤ 0
Cn1c(=O)c2[nH]c(-c3ccc(S(=O)(=O)O)cc3)nc2n(C)c1=O [8-(p-Sulfophenyl)theophylline],scaled lipid accumulation score,[2],inactive: ≤ 0
C[C@@H]1CN(c2c(F)c(N)c3c(=O)c(C(=O)O)cn(C4CC4)c3c2F)C[C@H](C)N1 [Sparfloxacin],scaled lipid accumulation score,[1],inactive: 0.027
same,scaled lipid accumulation score,library stock concentration: 5.1 mM,inactive: ≤ 0
same,scaled lipid accumulation score,[2],inactive: ≤ 0
CN1CCN(C(c2ccccc2)c2ccc(Cl)cc2)CC1 (stereo unspecified) [Chlorcyclizine hydrochloride],scaled lipid accumulation score,,inactive: 0.377
same,scaled lipid accumulation score,library stock concentration: 5.9 mM,inactive: 0.391
O=C(N/N=C/c1ccc([N+](=O)[O-])o1)c1ccc(O)cc1 [Nifuroxazide],scaled lipid accumulation score,,inactive: ≤ 0
same,scaled lipid accumulation score,[1],inactive: 0.007
same,scaled lipid accumulation score,[2],inactive: 0.454
Cc1cccc(Nc2cc(Cl)nc(SCC(=O)O)n2)c1C,scaled lipid accumulation score,[3],inactive: 0.006 and inactive: ≤ -0.021
same,scaled lipid accumulation score,[1],inactive: ≤ -0.009
same,scaled lipid accumulation score,[2],inactive: ≤ 0 and inactive: ≤ -0.006
CCOc1cc2ncc(C#N)c(Nc3ccc(OCc4ccccn4)c(Cl)c3)c2cc1NC(=O)/C=C/CN(C)C,scaled lipid accumulation score,[4],inactive: ≤ 0
same,scaled lipid accumulation score,[5],inactive: ≤ 0
same,scaled lipid accumulation score,[6],inactive: 0.107
same,scaled lipid accumulation score,[2],inactive: 0.02
"O=C1C=CC(=O)c2c1ccc1c2ccc2ccccc21 [Chrysene-1,4-quinone]",scaled lipid accumulation score,,inactive: 0.829
CN(Cc1ccccc1)C(=O)[C@H](Cc1ccc2ccccc2c1)NC(=O)[C@@H]1C[C@@H](O)CN1C(=O)c1cn(C)c2ccccc12,scaled lipid accumulation score,[2],inactive: 0.019
Cc1cn([C@@H]2C[C@@H](O)[C@H](CO)O2)c(=O)[nH]c1=O [Telbivudine],scaled lipid accumulation score,[1],inactive: ≤ 0
same,scaled lipid accumulation score,[2],inactive: ≤ 0
NC(=O)c1ncn([C@@H]2O[C@H](CO)[C@@H](O)[C@H]2O)c1O [Mizoribine],scaled lipid accumulation score,[2],inactive: ≤ -0.055
CC(=O)Nc1ccc(S(=O)(=O)Nc2ccc([N+](=O)[O-])cc2)cc1 [Sulfanitran],scaled lipid accumulation score,[8],inactive: ≤ 0
same,scaled lipid accumulation score,[2],inactive: 0.168
CCC(=O)[C@@]1(C)[C@H](C)C[C@H]2[C@@H]3CCC4=CC(=O)C=C[C@]4(C)[C@H]3[C@@H](O)C[C@@]21C [Rimexolone],scaled lipid accumulation score,,inactive: ≤ 0
Cc1ccc(C(=O)Nc2ccc(S(=O)(=O)O)c3cc(S(=O)(=O)O)cc(S(=O)(=O)O)c23)cc1NC(=O)c1cccc(NC(=O)Nc2cccc(C(=O)Nc3cc(C(=O)Nc4ccc(S(=O)(=O)O)c5cc(S(=O)(=O)O)cc(S(=O)(=O)O)c45)ccc3C)c2)c1 [Suramin],scaled lipid accumulation score,library stock concentration: 1.4 mM,inactive: 0.072
Cc1ccc(C(=O)Nc2ccc(S(=O)(=O)O)c3cc(S(=O)(=O)O)cc(S(=O)(=O)O)c23)cc1NC(=O)c1cccc(NC(=O)Nc2cccc(C(=O)Nc3cc(C(=O)Nc4ccc(S(=O)(=O)O)c5cc(S(=O)(=O)O)cc(S(=O)(=O)O)c45)ccc3C)c2)c1 [Suramin hexasodium salt],scaled lipid accumulation score,[2],inactive: ≤ -0.006
Cc1ccc(C(=O)Nc2ccc(S(=O)(=O)O)c3cc(S(=O)(=O)O)cc(S(=O)(=O)O)c23)cc1NC(=O)c1cccc(NC(=O)Nc2cccc(C(=O)Nc3cc(C(=O)Nc4ccc(S(=O)(=O)O)c5cc(S(=O)(=O)O)cc(S(=O)(=O)O)c45)ccc3C)c2)c1 [Suramin sodium salt],scaled lipid accumulation score,[2],inactive: ≤ 0
CCCCCCCCCCCCCCCC(=O)N[C@H]1CCOC1=O [N-hexadecanoyl-L-Homoserine lactone],scaled lipid accumulation score,[3],inactive: ≤ 0
CCc1cc(C(N)=S)ccn1 [Ethionamide],scaled lipid accumulation score,,inactive: ≤ 0
same,scaled lipid accumulation score,[1],inactive: ≤ 0
same,scaled lipid accumulation score,[2],inactive: ≤ 0
same,scaled lipid accumulation score,library stock concentration: 12 mM,inactive: 0.022
CCc1cc(C(N)=S)ccn1,scaled lipid accumulation score,[2],inactive: ≤ 0
N#CC(c1ccnc(NCCc2cccnc2)n1)c1nc2ccccc2s1 (stereo unspecified) [JNK Inhibitor V],scaled lipid accumulation score,[1],inactive: 0.329
N#CC(c1ccnc(NCCc2cccnc2)n1)c1nc2ccccc2s1 (stereo unspecified),scaled lipid accumulation score,[4],inactive: ≤ 0
same,scaled lipid accumulation score,[5],inactive: ≤ 0
same,scaled lipid accumulation score,[6],inactive: 0.058
same,scaled lipid accumulation score,[2],inactive: 0.62
OCc1ccc(O[C@@H]2O[C@H](CO)[C@@H](O)[C@H](O)[C@H]2O)cc1 [Gastrodin],scaled lipid accumulation score,[1],inactive: ≤ 0
same,scaled lipid accumulation score,[2],inactive: ≤ 0
O=C(NC(NC(=S)Nc1ccc(F)c([N+](=O)[O-])c1)C(Cl)(Cl)Cl)C(c1ccccc1)c1ccccc1 (stereo unspecified),scaled lipid accumulation score,[4],inactive: ≤ 0
same,scaled lipid accumulation score,[5],inactive: 0.081
same,scaled lipid accumulation score,[6],inactive: 0.01
same,scaled lipid accumulation score,[1],inactive: ≤ -0.009
same,scaled lipid accumulation score,[2],inactive: 0.019 and inactive: 0.171 and inactive: 0.352
CN(N=O)C(=O)N[C@@H](C=O)[C@@H](O)[C@H](O)[C@H](O)CO [Streptozocin],scaled lipid accumulation score,[2],inactive: ≤ -0.006
CN(N=O)C(=O)N[C@@H](C=O)[C@@H](O)[C@H](O)[C@H](O)CO [Streptozotocin],scaled lipid accumulation score,,inactive: ≤ 0
CC#CCOC(=O)c1c(C)nc2sc3c(c2c1N)CCC(O)C3 (stereo unspecified),scaled lipid accumulation score,[2],active: 1.72
CNCCC=C1c2ccccc2CCc2ccccc21 [Nortriptyline],scaled lipid accumulation score,[2],inactive: 0.72
CCN1CCN(Cc2ccc(NC(=O)c3ccc(C)c(/C=C/c4cnc5[nH]ccc5c4OC)c3)cc2C(F)(F)F)CC1,scaled lipid accumulation score,[6],active: 0.888
same,scaled lipid accumulation score,[2],active: 1.11
OC[C@H]1O[C@@H](OCCc2ccc(O)cc2)[C@H](O)[C@@H](O)[C@@H]1O [Salidroside],scaled lipid accumulation score,[1],inactive: ≤ 0
same,scaled lipid accumulation score,[2],inactive: ≤ 0
CCCCC[C@H](O)/C=C/[C@@H]1c2cc(CCCCC(=O)O)n(-c3ccccc3)c2C[C@H]1O [Piriprost (potassium salt)],scaled lipid accumulation score,[3],inactive: ≤ 0
C[C@H]1[C@H](NC(=O)/C(=N\OC(C)(C)C(=O)O)c2csc(N)n2)C(=O)N1S(=O)(=O)O [Aztreonam],scaled lipid accumulation score,,inactive: 0.037
same,scaled lipid accumulation score,[1],inactive: 0.024
same,scaled lipid accumulation score,[7],inactive: 0.043
same,scaled lipid accumulation score,[2],inactive: ≤ 0
Cl.C(=C(\CCN(C)C1)/C1)(/c2c(cccc2)C=C3)\c4c3cccc4 [Cyproheptadine hydrochloride],scaled lipid accumulation score,,active: 0.968
CCc1c2c(nc3ccc(OC(=O)N4CCC(N5CCCCC5)CC4)cc13)-c1cc3c(c(=O)n1C2)COC(=O)[C@]3(O)CC [IRINOTECAN HCl )trihydrate)],scaled lipid accumulation score,[2],active: 1.1
CCc1c2c(nc3ccc(OC(=O)N4CCC(N5CCCCC5)CC4)cc13)-c1cc3c(c(=O)n1C2)COC(=O)[C@]3(O)CC [Irinotecan],scaled lipid accumulation score,[1],inactive: 0.151
same,scaled lipid accumulation score,[2],inactive: 0.025
CCc1c2c(nc3ccc(OC(=O)N4CCC(N5CCCCC5)CC4)cc13)-c1cc3c(c(=O)n1C2)COC(=O)[C@]3(O)CC [Irinotecan HCl Trihydrate],scaled lipid accumulation score,[1],inactive: ≤ 0
same,scaled lipid accumulation score,[2],inactive: 0.228
CCc1c2c(nc3ccc(OC(=O)N4CCC(N5CCCCC5)CC4)cc13)-c1cc3c(c(=O)n1C2)COC(=O)[C@]3(O)CC [Irinotecan hydrochloride],scaled lipid accumulation score,[2],inactive: 0.299
CCc1c2c(nc3ccc(OC(=O)N4CCC(N5CCCCC5)CC4)cc13)-c1cc3c(c(=O)n1C2)COC(=O)[C@]3(O)CC,scaled lipid accumulation score,[2],inactive: 0.226
